# Results: the RNAGym collection of RNA variant scans (doi:10.7554/elife.90254)
# The source gives no read counts; variants with many changes may rest on few reads.
# B1: LINE1-full (parent)
# chain: UACGUAGGUGGUUUUCCCCUGAUAGUGCUAAGGGGGCCUGGAAGUUUGGACUGGGCAGAGCUCAACACAGCGUGGCAAAGUGGCUGUGGCUAGACUGCCUCUCUGGAUUCCUCGUCACUCAGCAGGGCAUCUCUGAGAGAAAUGCC
# Variants of: B1
# Experiment: self-cleavage, relative activity (ratio to wild type); higher = more cleavage; in vitro, sequencing; the parent is a self-cleaving ribozyme
row,Variant,self-cleavage
1,G36C A64U U143G,0.34
2,U15C U26C A69U,0.19
3,A43G U52A A59U U81A U132C,1.29
4,U46A G114A C116A A140U,1.08
5,U9A U12G A43G,1.01
6,A2U U85G A94G,0.25
7,U9C U20C G127A U132C,0.75
8,A59G A65G U100C,0
9,A79G U87A A107G A138G,0
10,G7C U39A U112A,2.42
11,U14C U46C A65G U102C,0
12,U119C U130C G144A,1.48
13,U20C G33A U104C A129G A142G,1.84
14,A42U A69G A79G A121G A141G,0.57
15,G36C U39A U62C,0.02
16,A43G U85A C116U,0.05
17,G36A A64U U108C,0.45
18,U45G U62C G125A U132C,0.05
19,U13C U14C A64G U130A A140G,0.59
20,A69G U91C U134C,0
21,U1C U13C U81C A142G,0.24
22,U15G A107U A129G,1.12
23,A6G U26C U62A,0.18
24,U62C A69G U73A A124G A141G,0

row,Variant,self-cleavage
1,A79G C95A G97A U100C U109A,0.04
2,U13C A57G A78U U91C,1.02
3,U23A C76U U119C,0.95
4,U14C A69G A124U,0.51
5,C19U G54A A77G A141G,1.05
6,G106A U130C A136U,1.44
7,A64U G74A U104C U132A A140G,0.4
8,U14C G32C A57U G137A,0.26
9,U52A A92G A138G,0
10,U23C U47C C51U U73C A121U,2.3
11,U45A G54A A69U U96A,0.02
12,A43G U46C A69G A141G G144A,0
13,A24G U85C G88A,0.11
14,U46C C113A A136U G144A,1.51
15,A22G G34A U109C U130C,1.35
16,U9A U20A U132A,1.22
17,U12C U26A A124G,0.37
18,A64G A69G C101U,0
19,C3U G34U G72A,1.65
20,U102C G127A A140G,1.14
21,C63A U96C C116A,0.05
22,A42G U47A A124G,0.7
23,A67G A79G A141G,0.75
24,U46C A59G A136U A138G,0

row,Variant,self-cleavage
1,U5A A129G A136C,0.26
2,U1C U14C A59G U62C,0.26
3,U39C G70A U115A G122A,0.04
4,U46A A136G A141G U143C,1.94
5,G4A A50G U96C,0.16
6,A42G U96C A124G,0.27
7,A64G U130C U134C,0
8,A42U U85A U115C,0.05
9,U13A A92U U102C U143C,0.89
10,U20G A67G G114A A141G,0.41
11,U13C U23C U104C,0.95
12,U1A A31G A43G U115A,0.38
13,G8A U14C A22G,1.34
14,A79G U87A G105A,0.08
15,U12C A43U U47C A129G U132A,1.15
16,U23C U26C U104A,1.23
17,A30G A141G C146U,0.93
18,U15C U23C A50G,1.31
19,U13C U112A G122A,1
20,C3G U47C U81A,1.12
21,U20C A57C A129U,0.17
22,A64G G127A U134G,0.09
23,U13C G40A U104C A136G,1.55
24,U12C G21U U39C U100C A124G,1.84

row,Variant,self-cleavage
1,C19A A50G U81A,0.93
2,A30U A31G A69G A77U U104A A142U,0.17
3,U104C G106A A117G,1.8
4,U13C A24G A129U,1.09
5,U14C U46C A57G A138G,0
6,U13A A22G U85C,0
7,A43U A59G C71U,0.04
8,G34U G127U G144A,1.39
9,U14G A78G G93U,0.11
10,U1C U9C A43G G70C U96A,0
11,U29A U45G A69G,0
12,U39A A77G U109C,2.73
13,U29C A30C U119C A140G A142U,1.02
14,U12C A24G U115C,1.02
15,C37G A64U U81A U96A U108C,0.01
16,U15G U87A U143A,0.24
17,A69G A141G U143C,0
18,G4C U5C U52G U62C A136G,0.15
19,U102C U115A C118U A121U A140U,1.02
20,G27A A43U A94G C116U U132C,0.17
21,U52C A77G C120U,2.05
22,U1C U13C A67G G93A A129G U143C,0
23,U26C U46C U119A A124G,0
24,U26A A78U U108C,2.26

row,Variant,self-cleavage
1,U12A U62C U81A C113U,0.08
2,A24U A65G A79U U87C C110U A129G U132C,0
3,U13C A42G G60U A140G,0.08
4,G41A U47A U134C,1.06
5,U12C A59U U109C,1.36
6,G93U C128U U132C,0.02
7,A42C U73C A77G A78G U104A C118U,0.92
8,G4A G36C A42G,0.94
9,A43G A50G U112A,0.57
10,U20C A77G U81C U85A,0
11,U13C U96C A136G,0.23
12,U52C A64C U115C,0.31
13,A2U U9C C19U U85C A107G,0.19
14,U13C U26C U134C,0.79
15,U12A U23C A136G,1.87
16,U12C A77U A141G,1.66
17,U96A U100C U119C A142G,0
18,G36A U87A U119A,0.06
19,U39A A138U A142G,1.96
20,U12A U13C U20G,0.61
21,U9C U15C A50G A141G,1.19
22,A57G A77G U87C A138G,0
23,A31G A138G A140G,0.64
24,U39C U73G U96A,0.04

row,Variant,self-cleavage
1,U13C A57G A107U,1.33
2,U9C G36C A42G A117U A136U,1.44
3,A42G U119C A140G,1.31
4,A42U U52G A69U,0.03
5,A22G U87C A129G U132C,0
6,U14C G36A A94C A117G,0.07
7,U14C A42G A138U,1.97
8,C37G A50G U87C U134G,0
9,U20C A31U U45C G88A,0
10,U14C C37A A42G,1.09
11,U9A U45C U52G,1.53
12,U20A U52A A79G A107G U134A,1.02
13,U14C A64G A65C U85C U115A,0
14,U81A U96A A124G,0.12
15,U13C C17A U73A A78G A94G,0.15
16,A94G U115A A142G,0.34
17,G49A A67G U100A,0.15
18,A43G G60C U108C,0.06
19,A22G A77U U85A U96C C110A U115C,0.04
20,A43G U46C A64U U132C A138U,0.69
21,C17U G58U A124G,0.02
22,U13C U26C G54U U62C U143C,0.13
23,U112A U115A U134A,1.52
24,A59G G97C C99A A138G,0.06

row,Variant,self-cleavage
1,U12C U45G C113U A138G,1.58
2,U39A A67U U119A U130G A138G A141U,0.13
3,G21U A64G A78G A79G A141G,0
4,A69G A79G G97A A140G,0.05
5,A43G A142G C145U,0.79
6,U9C A22G G55A U81A U109C A142G,0.11
7,G33C G93U A121G,0.25
8,U5A C16U A77U,0.59
9,U62C A64U A138U A140G A141G,0.03
10,G7U A57G U81A U100C,2.35
11,A43G A59G C63U A65G A136G,0.14
12,A43G C66G U119C A138C,0.11
13,U47C A59G U100C,0.1
14,A43G U45C G82A,0.98
15,U15G A64U C66U A94G,0.23
16,C18U A65G U108C,0
17,G10A G48U A78G,1.06
18,G35A U81A U85A U100C A138G,0.09
19,A78U U91A U102C A141G,0.7
20,U15C U91C A140G,0.2
21,A43G U96C U100C U109C A136U,0.48
22,C28A A43G C63U A79G U81C A92G,0.15
23,A24G U46A U85C U91A A138G U143A,0
